The values below come from publication PMC3667135.

These are yes or no findings as the source states them, for the method shown. For part of these data: Binding seen in cells or lysates may run through a third protein. Some binding calls cover weakened binding; strength is not graded here. Tags and fused reporters may be left off the sequences shown.

In experiment [1] the target is T1, Env-LP-GST wt (PFV Env aa 1–60 with C-terminal linker and GST, mammalian expression) (prototype foamy virus (PFV)) (UniProt P14351).
T1 sequence: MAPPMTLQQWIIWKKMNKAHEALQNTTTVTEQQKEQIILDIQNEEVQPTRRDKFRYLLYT
Description: pull-down; GST-tagged Env bait (or control) and Gag prey from separately transfected 293T cultures; 450 ul of each precleared lysate mixed with glutathione-sepharose beads, 2 h at 4°C; lysis buffer 50 mM Tris/HCl pH 7.4, 500 mM NaCl, 5 mM EDTA, 1 mM DTT, 5% glycerol, 1% Triton; washes with 150 mM NaCl, 0.1% Triton; Western blot (anti-HA or anti-Gag, anti-GST).

Experiment [2] addresses T1, Env-LP-GST wt (PFV Env aa 1–60 with C-terminal linker and GST, mammalian expression) (prototype foamy virus (PFV)). Nature of the experiment: pull-down; GST-tagged Env bait in 293T lysate (euk.), Gag-MBP-His prey affinity purified from E. coli (prok.); glutathione-sepharose beads, 2 h at 4°C; Western blot (anti-Gag, anti-GST); only the binder purified. Background: In western blotting, separated proteins are transferred to a membrane and probed.

The target in experiment [3] is T2, Recombinant PFV Env-LP-GST wt (PFV Env aa 1–60, C-terminal linker, GST and deca-His tag, E. coli) (prototype foamy virus (PFV)) (UniProt P14351).
T2 sequence: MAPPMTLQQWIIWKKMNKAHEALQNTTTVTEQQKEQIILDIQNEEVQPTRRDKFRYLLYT
Nature of the experiment: pull-down; both partners affinity purified from E. coli: bait (5 ug) and prey (200 ug) in 900 ul cold pull-down-assay buffer with glutathione-sepharose beads, 2 h at 4°C; Western blot (anti-Gag, anti-GST); both purified.

Experiment [4] addresses T2, Recombinant PFV Env-LP-GST wt (PFV Env aa 1–60, C-terminal linker, GST and deca-His tag, E. coli) (prototype foamy virus (PFV)). Description: pull-down; GST-tagged Env bait affinity purified from E. coli (prok.), Gag 1–310 CLEGHH prey in 293T lysate (euk.); glutathione-sepharose beads, 2 h at 4°C; Western blot (anti-Gag, anti-GST); only the target purified.
For experiment [5], the target named is T1, Env-LP-GST wt (PFV Env aa 1–60 with C-terminal linker and GST, mammalian expression) (prototype foamy virus (PFV)). Description: pull-down; GST-tagged Env bait (or control) and Gag prey from separately transfected 293T cultures; 450 ul of each precleared lysate mixed with glutathione-sepharose beads, 2 h at 4°C; lysis buffer 50 mM Tris/HCl pH 7.4, 500 mM NaCl, 5 mM EDTA, 1 mM DTT, 5% glycerol, 1% Triton; washes with 150 mM NaCl, 0.1% Triton; Western blot (anti-HA or anti-Gag, anti-GST). This is another data set of the same source.

For the molecule “PFV Gag 1–129 CLEGHH (from UniProt P14349 1-129) (domain or fragment)”, in experiment [1], the binding result is given as “no binding”.
On the same count and under the same terms, the result for “PFV Gag 1–155 CLEGHH (from UniProt P14349 1-155) (domain or fragment)” reads “no binding”; that for “PFV Gag 1–180 CLEGHH (from UniProt P14349 1-180) (domain or fragment)”, “binds”; that for “PFV Gag 1–295 CLEGHH (from UniProt P14349 1-295) (domain or fragment)”, “binds”.
Still for that read-out and setting: the result for “PFV Gag 1–350 CLEGHH (from UniProt P14349 1-350) (domain or fragment)” reads “binds”; that for “PFV Gag 1–450 CLEGHH (from UniProt P14349 1-450) (domain or fragment)”, “binds”.
For “PFV Gag 6–450 CLEGHH (from UniProt P14349 6-450) (domain or fragment)”, the binding result in experiment [1] was “binds”.
Consider “PFV Gag 11–450 CLEGHH (from UniProt P14349 11-450) (domain or fragment)”, for which the binding entry in experiment [1] is reported as “binds”.
On the same count and under the same terms, the result for “PFV Gag 16–450 CLEGHH (from UniProt P14349 16-450) (domain or fragment)” reads “no binding”; that for “PFV Gag 21–450 CLEGHH (from UniProt P14349 21-450) (domain or fragment)”, “no binding”; that for “PFV Gag 31–450 CLEGHH (from UniProt P14349 31-450) (domain or fragment)”, “no binding”.
For the molecule “PFV Gag 41–450 CLEGHH (from UniProt P14349 41-450) (domain or fragment)”, the binding result in experiment [1] is “no binding”.
On the same count and under the same terms, the result for “PFV Gag 130–295 CLEGHH (from UniProt P14349 130-295) (domain or fragment)” reads “no binding”.
Take “Recombinant PFV Gag 41–310 with C-terminal MBP and His tag (E. coli) (from UniProt P14349 41-310) (domain or fragment)”: the binding entry in experiment [2] is on record as “no binding”; in experiment [3], “no binding (tested: bait 5 ug, prey 200 ug in 900 ul)”.

B1: Recombinant PFV Gag 1–310 with C-terminal MBP and His tag (E. coli) (domain or fragment, UniProt P14349 1-310)
chain: MASGSNVEEYELDVEALVVILRDRNIPRNPLHGEVIGLRLTEGWWGQIERFQMVRLILQDDDNEPLQRPRYEVIQRAVNPHTMFMISGPLAELQLAFQDLDLPEGPLRFGPLANGHYVQGDPYSSSYRPVTMAETAQMTRDELEDVLNTQSEIEIQMINLLELYEVETRALRRQLAERSSTGQGGISPGAPRSRPPVSSFSGLPSLPSIPGIHPRAPSPPRATSTPGNIPWSLGDDSPPSSSFPGPSQPRVSFHPGNPFVEEEGHRPRSQSRERRREILPAPVPSAPPMIQYIPVPPPPPIGTVIPIQHI
For B1, the binding result in experiment [2] was “binds”.

B2: PFV Gag 1–310 CLEGHH (domain or fragment, UniProt P14349 1-310)
chain: MASGSNVEEYELDVEALVVILRDRNIPRNPLHGEVIGLRLTEGWWGQIERFQMVRLILQDDDNEPLQRPRYEVIQRAVNPHTMFMISGPLAELQLAFQDLDLPEGPLRFGPLANGHYVQGDPYSSSYRPVTMAETAQMTRDELEDVLNTQSEIEIQMINLLELYEVETRALRRQLAERSSTGQGGISPGAPRSRPPVSSFSGLPSLPSIPGIHPRAPSPPRATSTPGNIPWSLGDDSPPSSSFPGPSQPRVSFHPGNPFVEEEGHRPRSQSRERRREILPAPVPSAPPMIQYIPVPPPPPIGTVIPIQHI
For the molecule B2, the binding entry in experiment [4] and in experiment [5] was “binds” throughout.
